Experimental data taken from publication PMC4336329 (PLoS ONE, 2015).
Hit rate of the full screen: of about 310,000 compounds, about 2,200 (0.71%) showed an effect of 50% or more. The effect is printed as a negative number. This is one part of the list.

What follows are compounds tested against human ether-à-go-go-related gene (hERG) potassium channel (human, UniProt Q12809) (assay: primary screen, population patch clamp on CHO cells stably expressing hERG).
Sequence of human ether-à-go-go-related gene (hERG) potassium channel (Q12809 whole entry, looked up): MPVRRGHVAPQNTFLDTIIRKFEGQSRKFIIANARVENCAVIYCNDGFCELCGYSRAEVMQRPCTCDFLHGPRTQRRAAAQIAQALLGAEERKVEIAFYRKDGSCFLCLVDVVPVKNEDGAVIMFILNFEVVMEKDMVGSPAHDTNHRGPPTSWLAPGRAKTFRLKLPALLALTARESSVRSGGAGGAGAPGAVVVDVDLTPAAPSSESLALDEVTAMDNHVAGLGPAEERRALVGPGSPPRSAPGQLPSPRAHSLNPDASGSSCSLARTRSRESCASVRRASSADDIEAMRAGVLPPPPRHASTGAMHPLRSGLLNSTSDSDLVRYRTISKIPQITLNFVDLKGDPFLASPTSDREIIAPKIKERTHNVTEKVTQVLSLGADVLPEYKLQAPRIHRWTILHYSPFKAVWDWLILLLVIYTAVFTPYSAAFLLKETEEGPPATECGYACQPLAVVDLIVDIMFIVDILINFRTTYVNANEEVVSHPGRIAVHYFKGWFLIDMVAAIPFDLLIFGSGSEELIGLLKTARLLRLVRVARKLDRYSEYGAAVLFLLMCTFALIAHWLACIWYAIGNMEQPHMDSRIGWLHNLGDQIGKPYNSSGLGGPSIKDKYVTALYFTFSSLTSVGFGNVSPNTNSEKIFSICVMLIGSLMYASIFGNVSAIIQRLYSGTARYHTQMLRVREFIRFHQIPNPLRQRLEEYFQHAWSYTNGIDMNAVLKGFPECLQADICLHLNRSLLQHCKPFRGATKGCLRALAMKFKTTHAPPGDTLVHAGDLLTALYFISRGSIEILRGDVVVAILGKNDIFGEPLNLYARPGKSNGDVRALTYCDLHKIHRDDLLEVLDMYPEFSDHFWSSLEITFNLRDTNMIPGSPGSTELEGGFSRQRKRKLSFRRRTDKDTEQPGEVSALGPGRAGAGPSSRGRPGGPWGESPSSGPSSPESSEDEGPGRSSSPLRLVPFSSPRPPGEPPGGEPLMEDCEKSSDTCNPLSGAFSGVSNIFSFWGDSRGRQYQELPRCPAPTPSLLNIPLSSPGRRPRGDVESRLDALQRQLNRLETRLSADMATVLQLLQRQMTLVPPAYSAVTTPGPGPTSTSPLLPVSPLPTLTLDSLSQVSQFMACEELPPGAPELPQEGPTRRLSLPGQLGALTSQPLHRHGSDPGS
For `COc1ccc(N/N=C(\C#N)C(=N)N2CCCCC2)cc1`, the “hERG current change (%, negative = inhibition) at 1uM” value was 6.25%.
`COC(=O)c1c(NC(=O)CSc2nnnn2-c2ccccc2)sc2c1CCCC2` was tested, and the “hERG current change (%, negative = inhibition) at 1uM” value was -2.11%.
In the case of `Cc1nccn1-c1c2c(c(C#N)c3nc4ccccc4n13)CCC2`, the “hERG current change (%, negative = inhibition) at 1uM” value was 8.89%.
In the case of `Cc1nc2c(oc3ccc(Cl)cc32)c(=O)[nH]1`, the “hERG current change (%, negative = inhibition) at 1uM” value was 10.2%.
`Cc1ccc2c(c1)c1c(c(=O)n(-c3ccccc3)c(=O)n1CC(=O)NCC1CCCO1)n2C` (stereo not shown) was tested, and the “hERG current change (%, negative = inhibition) at 1uM” value was 16.3%.
In the case of `CCCCNC(=O)CCn1c(=O)c2cccn2c2ccc(F)cc21`, the “hERG current change (%, negative = inhibition) at 1uM” value was 7.88%.
For `O=S(=O)(Nn1cnnc1)c1ccc(F)cc1`, the “hERG current change (%, negative = inhibition) at 1uM” value was 22.5%.
For `CC1(C)CC(=O)C2=C(C1)Nc1ccccc1NC2c1ccc2c(c1)OCO2` (stereo not shown), the “hERG current change (%, negative = inhibition) at 1uM” value was 10.4%.
In the case of `COc1ccccc1NS(=O)(=O)c1ccc(/C=C/C(=O)O)cc1`, the “hERG current change (%, negative = inhibition) at 1uM” value was 8.03%.
For `Cc1nc2sc(C(c3ccccc3)N3CCN(CCO)CC3)c(O)n2n1` (stereo not shown), the “hERG current change (%, negative = inhibition) at 1uM” value was 8.04%.
In the case of `CC(C)CC(C(=O)Nc1cccc(O)c1)N1C(=O)c2ccccc2C1=O` (stereo not shown), the “hERG current change (%, negative = inhibition) at 1uM” value was 8.56%.
In the case of `O=C(CSCc1cccc(Br)c1)N=Nc1c(O)[nH]c2ccccc12`, the “hERG current change (%, negative = inhibition) at 1uM” value was 3.41%.
In the case of `COc1ccc(S(=O)(=O)N2CCC(C(=O)NCCC3=CCCCC3)CC2)cc1C`, the “hERG current change (%, negative = inhibition) at 1uM” value was -26.9%.
In the case of `O=C1C(=Cc2ccc(Br)o2)C(=O)c2ccccc21`, the “hERG current change (%, negative = inhibition) at 1uM” value was 5.75%.
For `COc1ccccc1NS(=O)(=O)c1cccc(C(=O)N/N=C/c2c(C)nn(-c3ccccc3)c2N2CCCC2)c1`, the “hERG current change (%, negative = inhibition) at 1uM” value was 5.93%.
`CC(c1ccccc1)C1C(C#N)=C(N)OC2=C1C(=O)CCC2` (stereo not shown) was tested, and the “hERG current change (%, negative = inhibition) at 1uM” value was 8.91%.
With `CSCCCNC(=O)c1ccc(OC2CCN(CCc3ccccc3)CC2)cc1` the “hERG current change (%, negative = inhibition) at 1uM” value was -18.9%.
`COC(=O)c1nn(-c2ccccc2)c(=O)cc1O` was tested, and the “hERG current change (%, negative = inhibition) at 1uM” value was 9.88%.
With `CC(C)CNC(=O)c1ccc(Cl)c(Cl)c1` the “hERG current change (%, negative = inhibition) at 1uM” value was 10.7%.
For `CCc1cccc2c(C(=O)COC(=O)c3c(C)noc3C)c[nH]c12`, the “hERG current change (%, negative = inhibition) at 1uM” value was 3.71%.
For `O=C1N/C(=N\S(=O)(=O)c2ccccc2)S/C1=C\c1cc([N+](=O)[O-])ccc1O`, the “hERG current change (%, negative = inhibition) at 1uM” value was 10.7%.
In the case of `CCOC(=O)NC1CCS(=O)(=O)C1` (stereo not shown), the “hERG current change (%, negative = inhibition) at 1uM” value was 1.05%.
With `CC(Cc1ccccc1)[n+]1cc(/N=C(\[O-])Nc2ccccc2)on1` (stereo not shown) the “hERG current change (%, negative = inhibition) at 1uM” value was 2.94%.
`C=CCSc1nnc(NC(=O)CSc2nc3ccccc3o2)s1` was tested, and the “hERG current change (%, negative = inhibition) at 1uM” value was 14.6%.
With `CCOC(=O)C1=C(O)C(=O)N(CCCn2ccnc2)C1c1ccc(OC)cc1` (stereo not shown) the “hERG current change (%, negative = inhibition) at 1uM” value was 1.97%.
With `COc1ccc(CCNS(=O)(=O)c2ccc3c(c2)CCN3C(=O)CCC(=O)O)cc1OC` the “hERG current change (%, negative = inhibition) at 1uM” value was 10.3%.
`CC(=O)Nc1cccc(NC(=O)c2c(-c3ccccc3)noc2C)c1` was tested, and the “hERG current change (%, negative = inhibition) at 1uM” value was 12.7%.
For `CCNC(=O)OCc1cn(-c2ccccc2)nn1`, the “hERG current change (%, negative = inhibition) at 1uM” value was 15.4%.
In the case of `CCOC(=O)c1ccc(NC(=O)Cn2c(C)nc3c(sc(=S)n3CC)c2=O)cc1`, the “hERG current change (%, negative = inhibition) at 1uM” value was 9.91%.
With `Cc1nn(C)cc1NC(=O)CC12CC3CC(CC(C3)C1)C2` the “hERG current change (%, negative = inhibition) at 1uM” value was -1.57%.
`C(=N\Nc1nn2cnnc2c2ccccc12)/c1ccco1` was tested, and the “hERG current change (%, negative = inhibition) at 1uM” value was 16.3%.
`CC(=O)c1sc(NS(=O)(=O)c2ccc(C)cc2)nc1-c1ccccc1` was tested, and the “hERG current change (%, negative = inhibition) at 1uM” value was 14.5%.
With `COc1ccccc1C(=O)Nn1c(C2CCC2)nc2ccccc2c1=O` the “hERG current change (%, negative = inhibition) at 1uM” value was 4.52%.
`O=C(N/N=C/c1ccc2c(c1)OCO2)C1CC1` was tested, and the “hERG current change (%, negative = inhibition) at 1uM” value was 0.968%.
For `COc1ccc(CCCc2nnc(SCC(=O)Nc3ncc(C)s3)o2)cc1`, the “hERG current change (%, negative = inhibition) at 1uM” value was 3.01%.
`CC(=O)c1ccc(N2CC(C)(C)C2=O)cc1` was tested, and the “hERG current change (%, negative = inhibition) at 1uM” value was -0.722%.
With `COc1ccccc1-n1cc(C(=O)NCC(=O)N2CCN(c3ccccc3)CC2)c2ccccc2c1=O` the “hERG current change (%, negative = inhibition) at 1uM” value was -6.13%.
With `COc1ccc(CC(=O)Nc2c3c(nn2-c2cccc(C)c2C)CS(=O)C3)cc1` (stereo not shown) the “hERG current change (%, negative = inhibition) at 1uM” value was 1.7%.
`CCn1c(SCC(=O)N2CCC(C)CC2)nc2c(c1=O)SCC2` was tested, and the “hERG current change (%, negative = inhibition) at 1uM” value was 3.75%.
In the case of `CCC(Oc1ccccc1F)C(=O)NCCCn1ccnc1` (stereo not shown), the “hERG current change (%, negative = inhibition) at 1uM” value was 11.1%.
For `CCOC(=O)c1c(C)[nH]c(C(=O)CSc2nnc(-c3cccs3)n2Cc2ccccc2)c1C`, the “hERG current change (%, negative = inhibition) at 1uM” value was 15.9%.
`O=C(/C=C/c1ccc(Cl)cc1Cl)N1CCN(c2ccccc2[N+](=O)[O-])CC1` was tested, and the “hERG current change (%, negative = inhibition) at 1uM” value was -43.2%.
With `O=C(Cc1coc(-c2ccc(F)cc2)n1)NC1CCCCC1` the “hERG current change (%, negative = inhibition) at 1uM” value was 15.2%.
In the case of `O=C(C1=C(O)C(=O)N(Cc2ccco2)C1c1cccs1)c1cccs1` (stereo not shown), the “hERG current change (%, negative = inhibition) at 1uM” value was 14.4%.
With `O=[N+]([O-])c1ccc(N2CCCCC2)nc1N1CCCCC1` the “hERG current change (%, negative = inhibition) at 1uM” value was 7.89%.
For `C/C(=N\NC(=O)c1cccc([N+](=O)[O-])c1)c1cccs1`, the “hERG current change (%, negative = inhibition) at 1uM” value was 9.15%.
With `O=C(COC(=O)Cc1ccccc1F)NCCc1ccccc1` the “hERG current change (%, negative = inhibition) at 1uM” value was 2.52%.
With `CCN(CC)Cc1c(O)c(Cl)cc2c(C)c(C)c(=O)oc12` the “hERG current change (%, negative = inhibition) at 1uM” value was 4.95%.
In the case of `COc1ccccc1NC(=O)C1=C(C)NC2=C(C(=O)CCC2)C1c1ccc(C)o1` (stereo not shown), the “hERG current change (%, negative = inhibition) at 1uM” value was 7.31%.
`COc1ccc(Nc2nnc(SCC3CCCCO3)s2)cc1` (stereo not shown) was tested, and the “hERG current change (%, negative = inhibition) at 1uM” value was 10.3%.
In the case of `O=C(NC1=NCCS1)c1cc(-c2ccccc2)nn1-c1ccccc1`, the “hERG current change (%, negative = inhibition) at 1uM” value was 13.9%.
With `COc1cc(SC)ccc1C(=O)N1CCN(c2ccccc2F)CC1` the “hERG current change (%, negative = inhibition) at 1uM” value was -18.2%.
`Fc1ccc(CNC(=S)NCc2ccccc2)cc1` was tested, and the “hERG current change (%, negative = inhibition) at 1uM” value was 1.12%.
For `CS(=O)(=O)N1CCSC1c1ccc(Br)cc1` (stereo not shown), the “hERG current change (%, negative = inhibition) at 1uM” value was 6.83%.
`COc1cc2c(=O)n(CCC(=O)NCC3CCCO3)c(=O)n(CC(=O)Nc3ccc(C)c(C)c3)c2cc1OC` (stereo not shown) was tested, and the “hERG current change (%, negative = inhibition) at 1uM” value was 11.6%.
In the case of `Cc1nccc(-c2cccc(NC(=O)Nc3ccc(Cl)cc3)c2)n1`, the “hERG current change (%, negative = inhibition) at 1uM” value was 12%.
`Cc1ccccc1CN1CCN(Cc2cc3ccccc3o2)CC1CCO` (stereo not shown) was tested, and the “hERG current change (%, negative = inhibition) at 1uM” value was 8.86%.
With `COc1ccc(CNC(=O)CN(C(=O)c2csnn2)c2ccc3c(c2)OCCO3)cc1` the “hERG current change (%, negative = inhibition) at 1uM” value was 7.47%.
